Consider 50 compounds from the supplement of paper PMC9938546.

Structures can show the parent of a compound that is named as a salt. The list shows a part of the results. Many values rest on one well or one pass, so single values are uncertain.
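Note: viability estimated indirectly by image-based GFP quantification with live-cell imaging of the constitutively GFP-expressing human colorectal cancer line, no immune cells added.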

For this assay, the system named is HCT116-GFP. The assay is described as follows: HCT116-GFP viability (GFP intensity) relative to untreated control, monoculture; higher = less cancer cell killing. The following applies: culture: HCT116-GFP monoculture; 10 µM; 72 h.
As for `Cc1cc(-n2c(=O)[nH]c(=O)n(C)c2=O)ccc1Oc1ccc(SC(F)(F)F)cc1` [Toltrazuril], the HCT116-GFP viability was 96.7%.
The value for `COc1ccc2[nH]c([S+]([O-])Cc3ncc(C)c(OC)c3C)nc2c1` (stereo not given) [Omeprazole] was 77.4%.
With `CC(=O)Nc1ccc(O)cc1` [Acetaminophen], the HCT116-GFP viability was determined as 98.3%.
The value for `COC(=O)C1=C(C)NC(C)=C(C(=O)OCCN(C)Cc2ccccc2)C1c1cccc([N+](=O)[O-])c1` (stereo not given) [Nicardipine hydrochloride] was 58.8%; that for `CN1CCN(c2c(F)cc3c(=O)c(C(=O)O)cn4c3c2SCC4)CC1` [Rufloxacin] was 93.9%.
Turning to `COC(=O)C1=C(C)NC(C)=C(C(=O)OCC(C)C)C1c1ccccc1[N+](=O)[O-]` (stereo not given) [Nisoldipine], the HCT116-GFP viability was found to be 22.6%.
As for `NC(=O)NC1NC(=O)NC1=O` (stereo not given) [Allantoin], the HCT116-GFP viability was determined as 109%.
For `O=C1CCc2ccc(OCCCCN3CCN(c4cccc(Cl)c4Cl)CC3)cc2N1` [Aripiprazole], the HCT116-GFP viability was determined as 53.9%.
As for `CN(C)CCOC(c1ccc(Cl)cc1)c1ccccn1` (stereo not given) [Carbinoxamine maleate salt], the HCT116-GFP viability stood at 97.2%.
The value for `Cc1ccccc1C(OCCN(C)C)c1ccccc1` (stereo not given) [Orphenadrine hydrochloride] was 105%.
For `O=C1C(O)=C([C@H]2CC[C@H](c3ccc(Cl)cc3)CC2)C(=O)c2ccccc21` [Atovaquone] the value was 74.7%; for `CC(C)NCC(O)c1ccc(O)c(O)c1` (single isomer, unassigned; (-)) [(-)-Isoproterenol hydrochloride], 71.6%.
On to `CN1CCOC(c2ccccc2)c2ccccc2C1` (stereo not given) [Nefopam hydrochloride], for which the HCT116-GFP viability stood at 96.9%.
On to `CN1CCC(=C2c3ccccc3CCc3sccc32)CC1` [Pizotifen malate], for which the HCT116-GFP viability was 90.9%.
`CCN(CC)CCOc1ccc(C(=C(Cl)c2ccccc2)c2ccccc2)cc1` [Clomiphene citrate (Z,E)]: the HCT116-GFP viability worked out at 19.5%.
The value for `CN(C)[C@@H]1C(O)=C(C(=O)NCNCCCC[C@H](N)C(=O)O)C(=O)[C@@]2(O)C(O)=C3C(=O)c4c(O)cccc4[C@@](C)(O)[C@H]3C[C@@H]12` [Lymecycline] was 81%; that for `CCCCNc1ccc(C(=O)OCCN(C)C)cc1` was 94.5%; that for `COc1ccccc1N1CCN(CCCCNC(=O)c2ccc3ccccc3c2)CC1` was 87.2%.
In the case of `CCC1NC(=O)c2cc(S(N)(=O)=O)c(Cl)cc2N1` (stereo not given) [Quinethazone], the HCT116-GFP viability turned out to be 93%.
For `Cc1cnc(C(=O)NCCc2ccc(S(=O)(=O)NC(=O)NC3CCCCC3)cc2)cn1` [Glipizide] the value was 94%.
`O=C1[C@H](CC[C@H](O)c2ccc(F)cc2)[C@@H](c2ccc(O)cc2)N1c1ccc(F)cc1` [Ezetimibe]: the HCT116-GFP viability stood at 84.4%.
For the compound `CC(C)(C)NC[C@H](O)COc1ccccc1C1CCCC1` [Penbutolol sulfate], the HCT116-GFP viability turned out to be 69%.
`COc1ccc(C(=O)c2ccccc2O)c(O)c1` [Dioxybenzone]: the HCT116-GFP viability worked out at 115%.
The value for `Nc1nc2[nH]cc(CCc3ccc(C(=O)N[C@@H](CCC(=O)O)C(=O)O)cc3)c2c(=O)[nH]1` [Pemetrexed disodium] was 59.1%; that for `COc1ccc(CN2CCN(C(c3ccc(F)cc3)c3ccc(F)cc3)CC2)c(OC)c1OC` [Lomerizine hydrochloride] was 25.2%.
With `Cc1cnc(C(=O)O)c[n+]1[O-]` [Acipimox], the HCT116-GFP viability turned out to be 105%.
As for `O=C(OCCOCCO)c1ccccc1Nc1cccc(C(F)(F)F)c1` [Etofenamate], the HCT116-GFP viability stood at 90.2%.
Turning to `O=C(O)[C@H]1/C(=C/CO)O[C@@H]2CC(=O)N21` [Clavulanate potassium salt], the HCT116-GFP viability is 82.3%.
For `C#C[C@]1(O)CC[C@H]2[C@@H]3CCC4=C(CCC(=O)C4)[C@H]3CC[C@@]21C` [Norethynodrel] the value was 82.7%; for `CC[N+](CC)(CC)CCOc1cccc(OCC[N+](CC)(CC)CC)c1OCC[N+](CC)(CC)CC` [Gallamine triethiodide], 96.9%.
As for `CCOC(=O)[N-]c1c[n+](N2CCOCC2)no1` [Molsidomine], the HCT116-GFP viability was 91.8%.
On to `CC(C)(C)NCC(O)c1cc(O)cc(O)c1` (stereo not given) [Terbutaline hemisulfate], for which the HCT116-GFP viability came out at 90.5%.
Take `NS(=O)(=O)c1cc2c(cc1Cl)NC(CC1CCCC1)NS2(=O)=O` (stereo not given) [Cyclopenthiazide]: the HCT116-GFP viability came out at 107%.
The value for `CN[C@@H]1[C@H](O[C@H]2[C@H](O[C@H]3[C@H](O)[C@@H](O)[C@H](NC(=N)N)[C@@H](O)[C@@H]3NC(=N)N)O[C@@H](C)[C@]2(O)CO)O[C@@H](CO)[C@H](O)[C@H]1O` [Dihydrostreptomycin sulfate] was 92.4%; that for `NCc1ccc(S(N)(=O)=O)cc1` [Mafenide hydrochloride] was 85.9%; that for `CCc1oc2ccccc2c1C(=O)c1cc(Br)c(O)c(Br)c1` [Benzbromarone] was 101%.
For `CC/C(=C(\c1ccccc1)c1ccc(OCCN(C)C)cc1)c1ccccc1` [Tamoxifen citrate] the value was 82.7%.
For the compound `CCCCC[C@H](O)/C=C/[C@H]1[C@H](O)CC(=O)[C@@H]1CCCCCCC(=O)O` [Alprostadil], the HCT116-GFP viability amounted to 95.5%.
Regarding `CCN1CCC[C@H]1CNC(=O)c1c(O)c(Cl)cc(Cl)c1OC` [Raclopride], the HCT116-GFP viability is 82.7%.
As to `CCOc1ccc(NC(C)=O)cc1` [Phenacetin], the HCT116-GFP viability came out at 94.1%.
In the case of `CN1CCC[C@@H]1CCO[C@](C)(c1ccccc1)c1ccc(Cl)cc1` [Clemastine fumarate], the HCT116-GFP viability was 60.5%.
As for `COc1cc2ncnc(Nc3ccc(F)c(Cl)c3)c2cc1OCCCN1CCOCC1` [Gefitinib], the HCT116-GFP viability is 57.5%.
Turning to `CC(C(=O)O)c1ccc(C(=O)c2cccs2)cc1` (stereo not given) [Suprofen], the HCT116-GFP viability was found to be 113%.
Consider `CN1CCC(OC(c2ccccc2)c2ccccc2)CC1` [Diphenylpyraline hydrochloride], for which the HCT116-GFP viability turned out to be 101%.
With `O=C(Oc1cccc2cccnc12)c1ccccc1` [Benzoxiquine], the HCT116-GFP viability was 44.3%.
For `Clc1ccc(Nc2nnc(Cc3ccncc3)c3ccccc23)cc1` [Vatalanib] the value was 62.6%; for `Fc1ccc([C@@H]2CCNC[C@H]2COc2ccc3c(c2)OCO3)cc1` [Paroxetine Hydrochloride], 62.6%; for `Nc1nc(O)c2ncn(CCC(CO)CO)c2n1` [Penciclovir], 107%.
The value for `CN(C/C=C/C#CC(C)(C)C)Cc1cccc2ccccc12` [Terbinafine] was 64.9%; that for `O=c1[nH]cnc2c1ncn2[C@H]1CC[C@@H](CO)O1` [Didanosine] was 94.1%.
